# In all, about 110,000 compounds went through this assay and about 230 (0.21%) showed an effect of 50% or more. The list shows a part of the results.
# Biological target: DPAP1 (Plasmodium falciparum, UniProt Q8IIJ9)
# Experiment: primary screen, percent inhibition; read by cleavage of a fluorogenic dipeptide substrate; higher = more effect of the substance
# Parameters: species or system P. falciparum D10 trophozoite lysates; single well
# 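Also: 30 min substrate incubation versus DMSO and 10 µM JCP410 controls.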
# DPAP1, sequence (Q8IIJ9 whole entry, looked up): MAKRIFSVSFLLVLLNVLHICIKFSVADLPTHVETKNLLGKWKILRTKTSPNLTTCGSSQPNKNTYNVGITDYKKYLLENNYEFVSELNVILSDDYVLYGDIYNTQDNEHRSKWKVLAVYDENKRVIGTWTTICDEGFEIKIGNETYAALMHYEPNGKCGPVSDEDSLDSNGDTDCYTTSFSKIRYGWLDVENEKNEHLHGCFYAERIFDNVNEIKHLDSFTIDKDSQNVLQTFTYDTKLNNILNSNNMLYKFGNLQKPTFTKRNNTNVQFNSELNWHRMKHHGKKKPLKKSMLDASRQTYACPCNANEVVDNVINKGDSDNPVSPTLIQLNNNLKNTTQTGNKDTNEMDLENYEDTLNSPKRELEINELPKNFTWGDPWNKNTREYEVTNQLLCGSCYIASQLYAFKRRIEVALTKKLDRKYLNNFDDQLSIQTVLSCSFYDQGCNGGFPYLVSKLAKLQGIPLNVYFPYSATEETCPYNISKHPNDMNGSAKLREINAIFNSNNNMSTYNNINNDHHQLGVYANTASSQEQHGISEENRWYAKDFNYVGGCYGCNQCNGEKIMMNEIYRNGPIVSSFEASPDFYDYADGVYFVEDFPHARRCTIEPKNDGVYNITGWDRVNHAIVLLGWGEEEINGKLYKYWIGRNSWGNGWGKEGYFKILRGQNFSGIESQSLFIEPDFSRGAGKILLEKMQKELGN
row,Structure (SMILES),% Inhibition @ 10 uM [%]
1,CC(C)N(CCCNC(=O)Cn1ncc2c3ccccc3n(C)c2c1=O)Cc1ccccc1,3.2
2,COc1cc(CO)cc(Br)c1OCC(=O)N1CCCCC1,-6.02
3,COc1ccc(CCNc2nc3ccc(C(=O)c4ccccc4)cc3n3c(C)nnc23)cc1OC,4.95
4,CCCCNC(=O)c1ccc(CS(=O)(=O)Cc2ccccc2F)o1,-2.72
5,Fc1ccc(C2NCc3ccccc3-n3cccc32)cc1 (stereo not drawn),-2.54
6,Cc1nn(CCC(=O)N2CCOCC2)c(=O)c2nn(-c3ccccc3)c(C)c12,1.26
7,CNc1ncc(Br)nc1N,-1.08
8,CCC(C)NC(=O)c1ccc2c(c1)ncn2-c1cc(C)cc(C)c1 (stereo not drawn),-5.64
9,CCc1ccccc1NC(=O)c1c(OC)cccc1OC,0.317
10,CCOc1ccc(CCNC(=O)c2nnc(Cc3ccc4c(c3)OCO4)o2)cc1OCC,2
11,O=C(c1cccc(Cl)c1)N1CCN(c2ccc3nnc(-c4ccccc4)n3n2)CC1,-1.37
12,O=C(NCCCc1ccccc1)c1ccc(CNc2c(N3CCCC3)c(=O)c2=O)cc1,1.22
13,COCCCNC(=O)c1cnn(-c2ccccc2)c1-n1cccc1,0.137
14,CCOC(=O)c1c(C)nc(S)c(C#N)c1-c1ccc(OC)cc1,52.9
15,O=C1C2C3C=CC(C3)C2C(=O)N1CNc1ccccc1Cl (stereo not drawn),-17.9
16,CCc1c(C)nc2nncn2c1NCc1ccccc1OC,-0.808
17,COC(=O)C1=C(C)N(c2ccc(C)c(C)c2)C(=O)C1,-3.38
18,CC1(C)C=Cc2c(ccc3ccccc23)S1,4
19,COC(=O)c1sccc1NC(=S)N(C)C1CCCCC1,0.813
20,Cc1cccc(OCCn2c(=O)oc3ccc(C)cc32)c1,-2.16
21,O=C1NC(=O)C2(CCC(C(=O)O)C2)N1 (stereo not drawn),1.68
22,Brc1cccc(-c2nc(C3CCCCC3)no2)c1,5.51
23,O/C(=C\c1nc2ccccc2nc1O)c1ccc(Cl)cc1,3.96
24,CCN(CC)c1ccc2c(c1)OC(N)=C(C#N)C2c1ccccc1F (stereo not drawn),-0.988
25,COc1ccc(OC)c(C2/C(=C(\O)OC3CCCCC3)C(C)=Nc3ncnn32)c1 (stereo not drawn),6.03
26,Nc1nonc1-c1noc(-c2cc3cc(Br)ccc3oc2=O)n1,-6.56

row,Structure (SMILES),% Inhibition @ 10 uM [%]
1,CCOc1cc(/C=C2/NC(=O)N(Cc3ccccc3F)C2=O)ccc1OCc1ccccc1,-5.51
2,COc1ccc(NC(=O)C2(C)CC3C=CC2C3)cc1 (stereo not drawn),-2.54
3,CCN1C(=O)c2cccc3c(NS(=O)(=O)c4ccccc4)ccc1c23,-1.29
4,COCCNC(=O)Cn1ncc2c1-c1cc(C)ccc1OC2,-7.48
5,CC(C)CS(=O)(=O)C1=NSC2=NC(=O)/C(=C\c3ccc(-c4cccc(C(=O)O)c4)o3)C(=N)N21,-7.21
6,COc1cccc(CSc2nc3ccncc3n2CC(=O)N2CCCC2)c1,-2.37
7,C=CCn1c(SCC(=O)NCC2CCCO2)nc2sc3c(c2c1=O)CCCCC3 (stereo not drawn),-2.77
8,Cc1ccccc1NC(=O)CS(=O)(=O)c1ccc2ccccc2c1,-0.25
9,Cn1c(OCc2ccco2)nc2c1c(=O)n(Cc1ccc(F)cc1)c(=O)n2C,3.74
10,CCc1cc(C(c2ccc(Cl)cc2)N2CCN(CCO)CC2)c(NC(=O)c2ccccc2)s1 (stereo not drawn),0.0289
11,CC(C)S(=O)(=O)C1=NSC2=NC(=O)/C(=C\c3ccc(O)c(O)c3)C(=N)N21,-5.27
12,COc1cc2c(cc1OC)C(COc1ccc(F)cc1)N(C(=O)c1cccc(OC)c1OC)CC2 (stereo not drawn),-8.41
13,CC(=O)c1ccc(NC(=O)c2ccc(-c3ccc(C(=O)Nc4ccc(C(C)=O)cc4)cc3)cc2)cc1,-0.425
14,O=C(COc1ccc(Cl)cc1)Nc1cccc(Br)c1,1.62
15,Cc1nnc2n1Nc1nc3ccccc3nc1S2,4.84
16,COc1ccc(-c2nc3n(c2N)CCS3)cc1,-2.91
17,Cc1ccc(CN(CC(=O)Nc2ccc3c(c2)OCCO3)S(=O)(=O)c2ccc(C)cc2)cc1,-4.12
18,COc1ccc(OC)c(C2CC(=O)C3=C(C2)NC(=O)CC3c2ccc(Cl)c(Cl)c2)c1 (stereo not drawn),2.54
19,Cc1ccc(NC(=O)CN2C(=O)S/C(=C\c3ccc(OCC#N)cc3)C2=O)cc1,2.55
20,Cc1cc(-c2ccc(C)c(S(=O)(=O)NC(C)(C)C)c2)on1,1.67
21,CCOC(=O)c1nnc(Cc2ccc(C)cc2)o1,-2.23
22,Cc1ccccc1CNC(C)c1ccccc1 (stereo not drawn),-1.38
23,Cc1cc(NC(=O)c2ccccc2Oc2ccccc2)no1,-3.41
24,Cc1cccc(NC(=O)Cn2nc(C(F)(F)F)cc2C2CC2)c1,-6.05
25,CCOC(=O)c1cc2c(=O)n3ccccc3nc2n(CC(C)C)/c1=N/C(=O)c1ccc(OC)cc1,1.26
26,COc1ccccc1N1CCN(C(=O)c2cccs2)CC1,-3.13

row,Structure (SMILES),% Inhibition @ 10 uM [%]
1,COc1cc(Br)c(C2CC(=O)NC(C)=C2C(=O)OCc2ccc(C)cc2)cc1OC (stereo not drawn),3.04
2,CCN(CC)CCOCCOc1cc(C)cc(C)c1,-2.91
3,COC(=O)c1sccc1NC(=O)CN1Cc2ccccc2C1=O,-2.41
4,Cc1nn2c(=O)cc(COc3ccc(/C=C4\C(=N)N5N=CSC5=NC4=O)cc3)nc2s1,-3.95
5,Cc1occc1C(=O)Nc1sc2c(c1C#N)CCCCCC2,10
6,CC(=O)c1c(C)oc2ccc(N(C(C)=O)S(=O)(=O)c3cc(C)ccc3C)cc12,-5.4
7,Cc1ccc(N2C(=O)CC(N3CCC(C)CC3)C2=O)cc1 (stereo not drawn),18.7
8,CCCCC(=O)Nc1cc2c(cc1C(C)=O)OCO2,-1.84
9,OC1CCCN(Cc2cccc(Cl)c2Cl)C1 (stereo not drawn),-6.47
10,CCOC(=O)N1CCN(C(=O)C(NC(=O)c2ccc(C34CC5CC(CC(C5)C3)C4)cc2)C(C)C)CC1 (stereo not drawn),4.69
11,COc1ccc(N(CN2C(=O)C3C4c5ccccc5C(c5ccccc54)C3C2=O)C(C)=O)cc1 (stereo not drawn),-9.75
12,COc1ccc(C(=O)Nc2cc(C)ccc2O)cc1Cl,0.161
13,Cc1ccccc1N(CC(=O)N1CCN(c2ccccc2)CC1)S(C)(=O)=O,-0.641
14,CCC(C)NC(=O)CC(c1ccc(OC)cc1)n1cccc1 (stereo not drawn),0.953
15,Cc1cc(Br)cnc1O,6.73
16,COc1ccc(N2C(=O)CC(Sc3nc(C)cc(C)n3)C2=O)cc1 (stereo not drawn),-2.39
17,COc1ccccc1CNC(=O)Nc1cccc(Cl)c1,5.42
18,COCC(C)NCc1cccc2ccccc12 (stereo not drawn),-4.04
19,CCN(Cc1ccccc1)C(=O)c1ccc(CS(=O)c2ccc(Br)cc2)o1 (stereo not drawn),3.36
20,CCOc1ccc(CCNC(=O)CCC(=O)N2Cc3ccccc3Oc3ncccc32)cc1OCC,3.53
21,O=C(O)c1ccc(Br)c(S(=O)(=O)N2CCCC2)c1,-0.856
22,COc1ccc(C(=O)NCC2CCCO2)cc1 (stereo not drawn),-6.05
23,COc1ccc(-c2cc(C(=O)O)c3cc(C)ccc3n2)cc1,1.84
24,Cc1sc(NC(=O)c2ccco2)c(C(c2ccccc2)N2CCOCC2)c1C (stereo not drawn),-6.64
25,COc1ccc(OC)c(/C=C2\SC(N3CCOCC3)=NC2=O)c1,0.147
26,O=C(O)CCCN1C(=O)C2C3CC(C2C1=O)C1C(c2cccs2)c2sc(O)nc2SC31 (stereo not drawn),-1.96

row,Structure (SMILES),% Inhibition @ 10 uM [%]
1,Cc1nn2c(-c3ccco3)nnc2c2ccccc12,-1.35
2,CCN(CCO)Cc1csc2c(F)c(F)c(F)c(F)c12,-2.53
3,CCC(C)Oc1ccccc1C1CC(=O)NC2=C1C(=O)CCC2 (stereo not drawn),1.97
4,COc1cccc(C2C(=O)N(C3CCC(C)CC3)CC(=O)N2Cc2ccccc2Cl)c1OC (stereo not drawn),-5.92
5,Cc1nn(CC(=O)Nc2ccc(C(N)=O)cc2)c(C)c1Br,2.82
6,Cc1ccc(C(=O)N/C(=C\c2cccs2)C(=O)NCc2ccc3c(c2)OCO3)cc1C,-0.864
7,CC(C)Cc1c(C#N)c(N)nc2sc(C#N)c(N)c12,5.2
8,COC(=O)c1cccc(-n2c(CCC(=O)O)ccc2-c2ccc(C)cc2)c1,7.04
9,Cc1ccc(S(=O)(=O)Nc2ccc(S(=O)(=O)Nc3ccc(C)cc3C)cc2)cc1,-3.95
10,Cc1nn(C(C)C(=O)NCCCOC(C)C)c(=O)c2nn(-c3ccccc3)c(C)c12 (stereo not drawn),2.82
11,CSc1ccc(CN(CCO)CCO)cc1,5.01
12,Cc1nn(Cc2noc(C(=O)NCc3nc4ccccc4[nH]3)n2)c(C)c1Br,0.895
13,CN1CCC(N2CCN(c3ccccc3F)CC2)CC1,-0.0953
14,COc1ccccc1Oc1ccc(S(=O)(=O)Nc2cccc(C(C)=O)c2)cc1,67.2
15,O=C(CCCCC(=O)Nc1ccc(F)cc1F)Nc1ccc(F)cc1F,-2.83
16,Cc1ccc(C(=O)N2CCc3ccccc32)o1,0.52
17,Cc1cc(C)n(-c2cccc(F)c2)c(=O)c1C(=O)O,-0.0619
18,Cc1nc2cc(C(=O)N3CCOCC3)ccc2n1-c1ccc(Br)cc1,-2.17
19,O=C(NC(=S)N1CCCCCC1)C12CC3CC(CC(C3)C1)C2,-4.96
20,CCOC(=O)c1cc(-c2ccc(-c3ccccc3)cc2)nc2ccc(Br)cc12,1.38
21,Cc1ccc2onc(CNC(=O)NC(C)CCc3ccccc3)c2c1 (stereo not drawn),2.99
22,CCN(CC)S(=O)(=O)c1ccc(NC(=O)c2cccc(NC(=O)C(C)C)c2)cc1,8.11
23,CN(CCC#N)S(=O)(=O)c1cccc2nsnc12,3.32
24,CCN1CCN(C(=O)Cn2ncc3ccsc3c2=O)CC1,3.59

# Reference: article PMC6919601, “Identification of Plasmodium dipeptidyl aminopeptidase allosteric inhibitors by high throughput screening” (PLoS ONE, 2019)
